# Assay results published in PubChem BioAssay AID504333 (National Center for Advancing Translational Sciences (NCATS), 2011).
# Hit rate of the full screen: of about 360,000 compounds, about 16,000 (4.4%) were called active. The shares of active, inactive and inconclusive entries below differ from those in the screen. Calls follow the shape of the dose curve; as a rule, active = well fitted inhibition curve with a large enough effect; inconclusive = small, poorly fitted or top-dose-only effect; inactive = no such curve, though single readings can be large or run the other way. Where the call is inconclusive, the potency comes from a doubtful curve fit.
# Biological target: Bromodomain adjacent to zinc finger domain protein 2B (Homo sapiens) (UniProt Q9UIF8)
# Assay: qHTS Assay for Inhibitors of BAZ2B; also: nearly all actives have a fitted effect of over 60% in size
# Settings: AlphaScreen BAZ2B-H3K14Ac peptide displacement; series mostly up to 114 µM
# Procedure, shortened: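 BAZ2B 50 nM plus b-H3(5-23)K14Ac 50 nM, PBS pH 7.4/0.01% Tween-20, 30 min RT; compound added (max 110 uM), 30 min RT; streptavidin donor/Ni-chelate acceptor beads 10 ug/mL final, 20 min dark; AlphaScreen read.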
# Potency is read from the fitted curve at half-maximal effect; tags tell the direction and shape of the fitted curve.
# UniProt Q9UIF8, sequence (Q9UIF8 whole entry, looked up, the tested form may be a part): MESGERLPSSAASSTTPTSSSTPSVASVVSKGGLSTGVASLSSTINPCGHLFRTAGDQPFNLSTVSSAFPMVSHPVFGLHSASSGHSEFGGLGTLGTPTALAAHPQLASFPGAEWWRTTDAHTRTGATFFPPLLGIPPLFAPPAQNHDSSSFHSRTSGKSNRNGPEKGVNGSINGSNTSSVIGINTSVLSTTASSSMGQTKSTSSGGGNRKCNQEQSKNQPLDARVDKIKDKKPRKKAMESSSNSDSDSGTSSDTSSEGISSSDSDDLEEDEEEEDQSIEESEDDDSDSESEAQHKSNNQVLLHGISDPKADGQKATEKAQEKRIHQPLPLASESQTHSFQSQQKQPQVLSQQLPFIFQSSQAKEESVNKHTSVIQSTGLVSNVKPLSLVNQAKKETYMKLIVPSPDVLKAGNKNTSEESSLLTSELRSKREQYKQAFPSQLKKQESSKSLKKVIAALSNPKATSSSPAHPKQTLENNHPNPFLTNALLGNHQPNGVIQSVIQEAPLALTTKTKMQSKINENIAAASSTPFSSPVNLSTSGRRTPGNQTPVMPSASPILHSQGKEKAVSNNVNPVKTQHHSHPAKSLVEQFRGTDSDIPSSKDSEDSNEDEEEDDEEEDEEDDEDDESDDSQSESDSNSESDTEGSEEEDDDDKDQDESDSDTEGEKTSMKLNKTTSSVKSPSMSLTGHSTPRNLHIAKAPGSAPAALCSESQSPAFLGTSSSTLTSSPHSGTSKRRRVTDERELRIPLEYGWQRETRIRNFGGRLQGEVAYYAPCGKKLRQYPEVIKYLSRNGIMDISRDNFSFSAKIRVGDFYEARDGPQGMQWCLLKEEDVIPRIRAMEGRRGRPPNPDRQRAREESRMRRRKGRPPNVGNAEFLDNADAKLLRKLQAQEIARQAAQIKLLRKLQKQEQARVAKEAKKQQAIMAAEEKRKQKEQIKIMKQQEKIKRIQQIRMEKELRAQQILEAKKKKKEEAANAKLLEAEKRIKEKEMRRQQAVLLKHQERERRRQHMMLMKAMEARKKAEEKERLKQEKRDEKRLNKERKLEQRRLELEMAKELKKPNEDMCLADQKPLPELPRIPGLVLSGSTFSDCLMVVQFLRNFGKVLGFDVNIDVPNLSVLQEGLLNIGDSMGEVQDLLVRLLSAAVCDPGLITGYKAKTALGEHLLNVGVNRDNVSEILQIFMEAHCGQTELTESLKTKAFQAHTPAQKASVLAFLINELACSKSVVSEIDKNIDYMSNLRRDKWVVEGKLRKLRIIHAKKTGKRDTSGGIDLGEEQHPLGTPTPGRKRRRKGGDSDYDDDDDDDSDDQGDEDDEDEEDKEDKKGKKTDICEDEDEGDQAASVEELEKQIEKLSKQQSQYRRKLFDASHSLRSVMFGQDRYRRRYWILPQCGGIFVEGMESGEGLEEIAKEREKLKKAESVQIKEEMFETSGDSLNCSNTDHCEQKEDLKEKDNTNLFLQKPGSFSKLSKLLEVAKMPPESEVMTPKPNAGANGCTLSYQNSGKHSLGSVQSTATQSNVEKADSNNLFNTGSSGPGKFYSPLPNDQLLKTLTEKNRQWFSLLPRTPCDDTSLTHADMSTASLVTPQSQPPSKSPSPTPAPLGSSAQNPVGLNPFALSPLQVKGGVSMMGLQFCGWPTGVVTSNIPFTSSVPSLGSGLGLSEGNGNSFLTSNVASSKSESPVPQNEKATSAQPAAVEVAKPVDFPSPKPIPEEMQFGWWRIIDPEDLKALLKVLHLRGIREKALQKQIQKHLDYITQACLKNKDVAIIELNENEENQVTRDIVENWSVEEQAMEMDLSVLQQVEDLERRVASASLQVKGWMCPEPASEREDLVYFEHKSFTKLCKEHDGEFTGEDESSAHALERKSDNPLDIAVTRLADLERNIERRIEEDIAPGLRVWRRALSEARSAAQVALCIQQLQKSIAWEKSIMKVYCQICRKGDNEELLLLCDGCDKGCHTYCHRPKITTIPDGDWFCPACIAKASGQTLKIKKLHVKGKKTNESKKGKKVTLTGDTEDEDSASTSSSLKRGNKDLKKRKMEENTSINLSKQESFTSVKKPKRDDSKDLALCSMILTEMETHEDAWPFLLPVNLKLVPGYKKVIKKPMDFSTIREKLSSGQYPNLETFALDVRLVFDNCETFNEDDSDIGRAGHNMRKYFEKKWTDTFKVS
row,Compound,Potency
1,N#Cc1c(/N=C/c2ccc(-c3ccc(C(=O)O)c(Cl)c3)o2)sc2c1CCCC2,"inconclusive: 50.1 µM [inhibitor, partial curve]"
2,C=CCc1ccc(OCCCNCc2ccccc2)c(OC)c1,active: 50.1 µM
3,COc1cccc(-c2nc(CS(=O)(=O)CC(=O)N3CCN(c4cc(C)ccc4C)CC3)c(C)o2)c1,"inconclusive: 22.4 µM [inhibitor, full curve]"
4,CCCn1c(C)cc(C(=O)COC(=O)CN=C2NS(=O)(=O)c3ccccc32)c1C,"inconclusive: 50.1 µM [inhibitor, partial curve]"
5,O=C(Nc1nc2c(F)cc(F)cc2s1)c1ccccn1,"inconclusive: 56.2 µM [inhibitor, partial curve]"
6,N#Cc1c(-c2ccccc2)nc(SCC(=O)Nc2ccccc2)[nH]c1=O,inactive
7,C=CCNC(=O)c1onc(CSc2nc3ccccc3[nH]2)c1C(=O)NCC=C,"inconclusive: 89.1 µM [inhibitor, single point]"
8,CCCc1ccc(OCC(=O)Nc2sc(C(=O)OCC)c(C)c2C(=O)OCC)cc1,inactive
9,Cc1ccc(C)c(N2CCN(S(=O)(=O)c3ccc4c(c3)C(C(C)C)C(=O)N4)CC2)c1 (configuration not stated),inactive
10,CCOC(=O)c1[nH]cnc1C(=O)NC1CCN(C(=O)OC(C)(C)C)CC1,"inconclusive: 89.1 µM [inhibitor, single point]"
11,C/C(=N\NS(=O)(=O)c1ccc(Cl)c([N+](=O)[O-])c1)c1cc2ccccc2o1,"inconclusive: 79.4 µM [inhibitor, single point]"
12,COc1ccc(CCNC(=O)c2nc(-c3ccc(Cl)cc3)n3c2CCCCC3)c(OC)c1,active: 17.8 µM
13,CCOc1ccc(-c2ccc(/C=C3/C(=N)N4C(C)=CSC4=NC3=O)o2)c([N+](=O)[O-])c1,"inconclusive: 79.4 µM [inhibitor, single point]"
14,CCc1ccc(Nc2nnc(SCn3nnc4ccccc4c3=O)s2)cc1,"inconclusive: 4.47 µM [inhibitor, full curve, poor fit]"
15,COc1ccc(NC(=O)CSc2nccn2Cc2ccccc2)c(OC)c1,"inconclusive: 35.5 µM [inhibitor, partial curve]"
16,COc1ccc(CNC(C)C2COc3ccccc3O2)c(OC)c1 (configuration not stated),active: 50.1 µM
17,COc1ccc(OCc2ccc(-c3nc(C#N)c(NC(C)c4ccccc4)o3)o2)cc1 (configuration not stated),inactive
18,Cc1cccc(C)c1Nc1c(-c2ccccn2)nc2c(C)cccn12,"inconclusive: 2.51 µM [inhibitor, full curve]"
19,O=C1C=C(c2ccnc3cc(Cl)ccc23)C[C@@H](c2ccc3c(c2)OCO3)C1,"inconclusive: 79.4 µM [inhibitor, single point]"
20,Cc1ccc(NC(=O)CSc2nc3ccccc3c(=O)n2CCCC(=O)NCCCN2CCOCC2)cc1C,"inconclusive: 70.8 µM [inhibitor, partial curve, poor fit]"
21,COc1ccc(-c2[nH]c3ccccc3c2SCCN)cc1,"inconclusive: 50.1 µM [inhibitor, partial curve]"

row,Compound,Potency
1,O=C1C2CC=CCC2C(=O)N1Nc1ccccc1 (configuration not stated),"inconclusive: 89.1 µM [inhibitor, single point]"
2,C/C(=N\NC(=O)c1nnn(-c2nonc2N)c1CN1CCOCC1)c1ccc(CC(C)C)cc1,"inconclusive: 70.8 µM [inhibitor, single point]"
3,CC(c1ccco1)N(C(=O)c1ccccc1NS(=O)(=O)c1ccc(Cl)c([N+](=O)[O-])c1)c1ccccn1 (configuration not stated),"inconclusive: 44.7 µM [inhibitor, partial curve]"
4,COc1cc2cnc(-c3ccccc3)c(C(=O)c3ccc(F)cc3)c2cc1OC,"inconclusive: 89.1 µM [inhibitor, single point]"
5,Cc1cc(OCC(=O)Nc2cc(-c3nc4ncccc4o3)ccc2C)ccc1Cl,inactive
6,COc1ccc(-n2nc3cc(C)c(NC(=O)c4ccc(-c5ccc(Cl)cc5)o4)cc3n2)cc1,inactive
7,COc1ccc(NC(=O)CCNS(=O)(=O)c2ccc3c(c2)CCCC(=O)N3)cc1Cl,inactive
8,O=C(CN1CCN(c2ccccc2)CC1)Nc1cccc([N+](=O)[O-])c1,"inconclusive: 89.1 µM [inhibitor, single point]"
9,Clc1ccc(/C=N\Nc2ccccc2)cc1,"inconclusive: 89.1 µM [inhibitor, single point]"
10,CCOc1ccc2nc(SCC(=O)N(C)C)[nH]c2c1,"inconclusive: 11.2 µM [inhibitor, full curve]"
11,CCOCCCNC(=O)c1ccc(-n2c(-c3ccccc3)cc3c2CCC(C)C3)cc1 (configuration not stated),inactive
12,CSc1nnc(-c2cc3c(-c4ccccc4)nn(C)c3s2)n1C,"inconclusive: 79.4 µM [inhibitor, single point]"
13,Nc1cc(Oc2ccc(Cl)cc2Cl)nc(N)n1,"inconclusive: 39.8 µM [inhibitor, single point]"
14,CCCc1ccc(O)c(N=Cc2cc(Br)cc(OCC)c2O)c1,"inconclusive: 44.7 µM [inhibitor, partial curve]"
15,CC(C)[C@H](NC(=O)[C@@H]1Cc2c([nH]c3ccccc23)C2c3ccccc3C(=O)N21)C(=O)NCC1CCCO1 (some centres not stated),"inconclusive: 89.1 µM [inhibitor, single point]"
16,COc1cccc(N2CCN(Cc3cccnc3)CC2)c1,active: 39.8 µM
17,Cc1oc(-c2ccc(C(=O)NCc3ccccc3)cc2)nc1CN1CCc2ccccc21,"inconclusive: 15.8 µM [inhibitor, full curve, poor fit]"
18,COc1ccccc1NC(=O)c1c(N=Cc2ccccc2O)cnn1C,"inconclusive: 44.7 µM [inhibitor, partial curve]"
19,COc1ccc(C(=O)O/N=C(/c2ccccc2)c2ccncc2)cc1OC,"inconclusive: 89.1 µM [inhibitor, single point]"
20,COc1cccc(OCCCCN2CC(C)OC(C)C2)c1 (configuration not stated),"inconclusive: 89.1 µM [inhibitor, single point]"
21,CCC(=O)NC(=S)Nc1ccc(NC(=O)c2ccc([N+](=O)[O-])cc2Cl)cc1,inactive
